Measured values reported in the supplement of paper PMC5655136.
Read counts after selection give these values, which scatter widely.

System: NB7
Test: fold depletion of shRNA, plasmid library share / infected cells without Dox share (9 days) (ratio); higher = more depleted after infection (more toxic, leaky expression from a Tet-inducible vector; NB7 is a neuroblastoma line without caspase-8)
Method: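 Pooled lethality screen in NB7 neuroblastoma cells infected with Dox-inducible pTIP shRNA libraries. The libraries tile every 21-mer of the Venus, CD95L or CD95 ORF / 3'UTR; each hairpin is the 21-nt sense sequence + CTCGAG loop + antisense. Cells were cultured 9 days with or without 100 ng/ml Dox. shRNA representation was measured by deep sequencing of the genomic inserts, normalised to the total reads per subpool and averaged over technical replicates. Fold depletion is the plasmid library share / infected cells without Dox share (mean of 2 biological replicates), and the -Dox/+Dox share ratio is the mean of 4 replicate pairings; higher values mean more depletion (toxicity).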

[1] = shRNA pool: CD95 ORF + CD95 3'UTR + Venus libraries
[2] = shRNA pool: CD95L ORF + CD95L 3'UTR + Venus libraries
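Also: shRNA barcodes quantified by deep sequencing of PCR amplicons from cellular DNA, counts expressed as percent of each subpool, ratio averaged over two biological duplicates.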

Sequence | fold depletion of shRNA [1] | fold depletion of shRNA [2]
AAATGTGAACATGGAATCATC | 3.94 | –
AAATGTGAATTTTAAGAAATA | 0.679 | –
AAATGTTCAATAATGTCCCAT | 1.09 | –
AAATTACCTCTGATAATTCTA | 1.07 | –
AAATTATAATGTTTGACTATT | 0.869 | –
AAATTCAAACTTCAGAAATGA | 1.25 | –
AAATTCAGACTATCATCCTCA | 0.85 | –
AAATTCAGTTCTGAGTATATG | 2.18 | –
AAATTTATCTGATGTTGACTT | 0.834 | –
AACAAACTTCATCAAGAGTAA | 0.627 | –
AACAAATTCAGTTCTGAGTAT | 0.98 | –
AACAACAAATTCAGTTCTGAG | 1.19 | –
AACAACCTGCCCCTGAGCCAC | – | 0.203
AACACAGCATGTGTATTTCCA | – | 1.37
AACACCAAGTGCAAAGAGGAA | 1.93 | –
AACACCCCCATCGGCGACGGC | 2.53 | 3.83
AACACTGTGACCCTTGCACCA | 2.54 | –
AACAGAAAGTTCAACTGCTTC | 1.26 | –
AACAGATAAGCAAGAGAGATG | – | 0.583
AACAGCCACAACGTCTATATC | 6.05 | –
AACAGGCAAGTCCAACTCAAG | – | 0.529
AACAGGCAGGCCACTTTGCCT | 1.95 | –
AACAGTGGCAATAAATTTATC | 0.974 | –
AACATAGAACTCTGGGCTGCC | – | 4.42

Sequence | fold depletion of shRNA [1] | fold depletion of shRNA [2]
AACATATGATTCTGTAGTATG | 1.48 | –
AACATATTTGTAGATTTTTAA | 0.9 | –
AACATCCTGGGGCACAAGCTG | 1.76 | 1.7
AACATCGAGGACGGCGGCGTG | 0.9 | 2.24
AACATGCAGAAAGCACAGAAA | 1.52 | –
AACATGGAAATATCACCAAAA | 1.01 | –
AACATGGAATCATCAAGGAAT | 1.28 | –
AACATGTAATAAAAAGTATAT | – | 0.876
AACATTAAATTATAATGTTTG | 0.732 | –
AACCAAACTTTTTTTGTAACT | 1.1 | –
AACCAAGGTTCTCATGAATCT | 1.22 | –
AACCAAGTGGACCTTGAGACC | – | 1.56
AACCACAGCACAGGCCTGTGT | – | 0.638
AACCACCTAAAGAACTTCCAT | 1.37 | –
AACCACTACCTGAGCTACCAG | 2.43 | 2.62
AACCAGACTGCGTGCCCTGCC | 2.05 | –
AACCCATGTTTGCAATCAAAG | 2.15 | –
AACCCCACTCTATGAATCAAT | 1.42 | –
AACCGCATCGAGCTGAAGGGC | 1.15 | 1.93
AACCTCTGTGCCCAGAAGGCC | – | 23.8
AACCTGCCCCTGAGCCACAAG | – | 6.43
AACCTGCTACAAATGGCAGCT | 3.22 | –
AACGAGAAGCGCGATCACATG | – | 2.45
AACGGCATCAAGGCCAACTTC | 1.02 | 2.02

Sequence | fold depletion of shRNA [1] | fold depletion of shRNA [2]
AACGGCCACAAGTTCAGCGTG | 0.9 | 1.28
AACGTATCTGAGCTCTCTCTG | – | 2.03
AACGTCTATATCACCGCCGAC | 2.22 | 1.37
AACTAACAGATAAGCAAGAGA | – | 1.12
AACTACAACAGCCACAACGTC | 0.778 | 0.878
AACTACAAGACCCGCGCCGAG | 1.88 | 1.67
AACTACCTACTTCTTTCTCAG | 1.55 | –
AACTCAAGGTCCATGCCTCTG | – | 4.34
AACTCACCTAATGTTTATGAG | – | 0.962
AACTCACCTCTCAAGGTGGGC | – | 1.69
AACTCCAAGGGATTGGAATTG | 1.67 | –
AACTCTAAGTATCCCCAGGAT | – | 1.77
AACTCTAATAGTGCTTAAAAA | – | 0.445
AACTCTACTGTATGTGAACAC | 1.24 | –
AACTCTGAGAAGATCATATTT | 1.22 | –
AACTCTGGGCTGCCATGTGAA | – | 3.24
AACTGAAGCAGATACCTGGAA | 1.66 | –
AACTGCACCCGGACCCAGAAT | 1.11 | –
AACTGCTCTCAGAGAAAGTAG | 1.61 | –
AACTGCTTCGTAATTGGCATC | 1.72 | –
AACTGGGCTGTACTTTGTATA | – | 0.751
AACTGTGAAGATAGTTATAAA | 0.981 | –
AACTTCAAGATCCGCCACAAC | 1.35 | 1.32
AACTTCAGAAATGAAATCCAA | 1.13 | –

Sequence | fold depletion of shRNA [1] | fold depletion of shRNA [2]
AACTTCATCAAGAGTAAATGC | 1.09 | –
AACTTCATGGAAAGAAAGAAG | 0.864 | –
AACTTCCATTTATGGAGGATT | 1.36 | –
AACTTGGAAGGCCTGCATCAT | 2.57 | –
AACTTTAAATCCTGAAACAGT | 1.12 | –
AACTTTGTTTATAACTCTGAG | 1.34 | –
AACTTTTTTTGTAACTCTACT | 0.589 | –
AAGAAAGAAGCGTATGACACA | 2.69 | –
AAGAAATAATATTTATATTTC | 1.86 | –
AAGAACATAGAACTCTGGGCT | – | 1.32
AAGAACGGCATCAAGGCCAAC | 0.712 | 1.26
AAGAACTTCCATTTATGGAGG | 1.24 | –
AAGAAGACATGAACCAAGTGG | – | 1.51
AAGAAGAGAGGGAACCACAGC | – | 3.61
AAGAAGCGTATGACACATTGA | 0.549 | –
AAGAAGCTATGACCTTTTGCT | 1.81 | –
AAGAAGGGAAGGAGTACACAG | 0.655 | –
AAGAATGACAATGTCCAAGAC | 2.58 | –
AAGAATGGTGTCAATGAAGCC | 0.629 | –
AAGACACAGCAGAACAGAAAG | 1.14 | –
AAGACACCTATGGAATTGTCC | – | 1.41
AAGACATGAACCAAGTGGACC | – | 2.06
AAGACCCCAACGAGAAGCGCG | 0.639 | 0.472
AAGACCCGCGCCGAGGTGAAG | 1.3 | 0.656

Sequence | fold depletion of shRNA [1] | fold depletion of shRNA [2]
AAGACCTTTGCACAGTTTATT | 2.15 | –
AAGACTAGAGGCTTGCATAAT | – | 1.08
AAGACTGCCCTTAGAAATTCT | 5.1 | –
AAGACTGTTACTACAGTTGAG | 0.874 | –
AAGAGAAAGGAAGTACAGAAA | 0.974 | –
AAGAGAAGCACTTTGGGATTC | – | 3.55
AAGAGAGAATGTAGATATTGT | – | 0.595
AAGAGAGATGTTTTGGGGACT | – | 1.17
AAGAGAGGGAACCACAGCACA | – | 0.558
AAGAGCCAACATATTTGTAGA | 0.907 | –
AAGAGGCCAATGCCCCACTGG | – | 1.3
AAGAGGCTGAAAGAGGCCAAT | – | 3.67
AAGAGGGAGAAGCATGAAAAA | – | 0.866
AAGATAGTTATAAACTGAAGC | 0.895 | –
AAGATCATATTTATGTAAAGT | 0.972 | –
AAGATCCGCCACAACATCGAG | 0.804 | 0.791
AAGATCTCAAAAAAGCCAATC | 1.27 | –
AAGATGATAAAATAGATTCTT | 0.883 | –
AAGATGATGAGCTACTGCACT | – | 1.96
AAGATGTAGATTGTGTGATGA | 1.86 | –
AAGATTAAGATTATGCTCTGG | 1.46 | –
AAGATTCTCCTTACTACTATC | 1.26 | –
AAGATTCTTAATAGCTGGCTG | 1.6 | –
AAGATTTAAGATTCTCCTTAC | 1.06 | –

Sequence | fold depletion of shRNA [1] | fold depletion of shRNA [2]
AAGATTTTGAATGCTTCCTGA | – | 1.83
AAGCAAATAGGCCACCCCAGT | – | 1.04
AAGCAAGAGAGATGTTTTGGG | – | 0.956
AAGCACAGAAAGGAAAACCAA | 1.5 | –
AAGCACTTTGGGATTCTTTCC | – | 1.27
AAGCAGAAGAACGGCATCAAG | 2.37 | –
AAGCAGCACGACTTCTTCAAG | 3.72 | –
AAGCAGCTACCAGGTGTTCTA | – | 3.12
AAGCCAAAATAGATGAGATCA | 1.96 | –
AAGCCAATCTTTGTACTCTTG | 1.2 | –
AAGCCCATTTTTCTTCCAAAT | 1.35 | –
AAGCCCTGTCCTCCAGGTGAA | 0.492 | –
AAGCGCGATCACATGGTCCTG | 1.02 | 0.986
AAGCGTATGACACATTGATTA | 1.57 | –
AAGCTAAAGAGGCTGAAAGAG | – | 2.31
AAGCTAGGGACTGCACAGTCA | 1.82 | –
AAGCTATGACCTTTTGCTGAA | 1.28 | –
AAGCTGACCCTGAAGCTGATC | 2.29 | –
AAGCTGATCTGCACCACCGGC | 1.08 | 1.36
AAGCTGCCCGTGCCCTGGCCC | 0.477 | 0.76
AAGCTGGAGTACAACTACAAC | 1.69 | –
AAGGAAAACCAAGGTTCTCAT | 3.08 | –
